# According to the antibiotic and cytotoxicity screens of Wong et al. (2023):
# Some of the results follow.
# What was measured:
# HSkMC = human skeletal muscle cells; assay: cytotoxicity call (relative viability < 0.9); details: 10 µM
# HepG2 = assay: cytotoxicity call (relative viability < 0.9); details: 10 µM
# S. aureus RN4220 = assay: growth inhibition call (relative growth <= 0.2); details: 50 µM
SMILES,cytotoxicity call (HSkMC),cytotoxicity call (HepG2),growth inhibition call (S. aureus RN4220)
CC(C)(C)NCc1ccccc1F,inactive,inactive,inactive
CC(C)NC(=O)N(C)C[C@@H]1Oc2c(NS(=O)(=O)c3cn(C)cn3)cccc2C(=O)N([C@H](C)CO)C[C@H]1C,inactive,inactive,inactive
C[C@H]1CN([C@@H](C)CO)C(=O)c2cc(C3=CCCC3)cnc2O[C@H]1CN(C)S(=O)(=O)c1cn(C)cn1,inactive,inactive,inactive
COc1ccc(NC(=O)N(C)C[C@@H]2OCc3cn(nn3)CCCC(=O)N([C@H](C)CO)C[C@H]2C)c(OC)c1,inactive,inactive,inactive
CN1CCN(C(=O)[C@H]2[C@H](CO)[C@H]3Cn4c(ccc(C5=CCCCC5)c4=O)[C@@H]2N3S(C)(=O)=O)CC1,inactive,inactive,inactive
Cc1noc(C)c1S(=O)(=O)N(C)C[C@H]1Oc2c(NS(=O)(=O)c3cn(C)cn3)cccc2C(=O)N([C@H](C)CO)C[C@@H]1C,inactive,inactive,inactive
C[C@@H]1CN([C@@H](C)CO)C(=O)c2cccc(NC(=O)c3nc4ccccc4s3)c2O[C@H]1CN(C)Cc1ccc(C(F)(F)F)cc1,inactive,inactive,inactive
CN(C)C(=O)CN1CCn2cc(Cn3cncn3)nc2C1,inactive,inactive,inactive
C=C(C)CC1(N[C@H](C)c2ccccc2)CCCCC1,inactive,inactive,inactive
O=c1[nH]c2ccccc2c(O)c1[I+]c1ccccc1,inactive,inactive,inactive
C[C@H]1CN([C@@H](C)CO)C(=O)c2cc(C#CCN(C)C)cnc2O[C@@H]1CN(C)Cc1ccc(C(=O)O)cc1,inactive,inactive,inactive
CCCC#Cc1cnc2c(c1)C(=O)N([C@@H](C)CO)C[C@@H](C)[C@@H](CN(C)C(=O)c1ccc3c(c1)OCO3)O2,inactive,inactive,inactive
Cc1noc(C)c1NC(=O)Nc1ccc2c(c1)CC(=O)N([C@H](C)CO)C[C@H](C)[C@@H](CN(C)Cc1ccc(C(=O)Nc3ccccc3N)cc1)O2,inactive,inactive,inactive
CCS(=O)(=O)N1CC[C@]2(CC1)CN([C@@H](CO)c1[nH]c3cc(ccc3c12)OC)S(=O)(=O)c1cn(cn1)C,inactive,inactive,inactive
CC(C)NC(=O)Nc1cccc2c1O[C@@H](CN(C)Cc1ccc(C(=O)O)cc1)[C@H](C)CN([C@H](C)CO)C2=O,inactive,inactive,inactive
Cc1c(NC(=O)c2cccnc2)c(=O)n(-c2ccccc2)n1C,inactive,inactive,inactive
COc1ccc(S(=O)(=O)N(C)C[C@H]2OCCCC[C@@H](C)Oc3ccc(NC(=O)Nc4cccc5ccccc45)cc3C(=O)N([C@H](C)CO)C[C@H]2C)cc1,inactive,inactive,inactive
CCS(=O)(=O)N1C[C@]2(CN(C2)S(=O)(=O)c2cn(cn2)C)c2c(n(c3cc(ccc23)OC)C)[C@@H]1CO,inactive,inactive,inactive
C[C@@H]1CN([C@@H](C)CO)C(=O)c2cc(NS(=O)(=O)c3ccccc3)ccc2O[C@@H](C)CCCCO[C@H]1CN(C)C(=O)Nc1cccc2ccccc12,inactive,active,inactive
CC(C)NC(=O)Nc1ccc2c(c1)C(=O)N([C@H](C)CO)C[C@@H](C)[C@@H](CN(C)Cc1ccc(C(F)(F)F)cc1)OCCCC[C@@H](C)O2,inactive,inactive,inactive

SMILES,cytotoxicity call (HSkMC),cytotoxicity call (HepG2),growth inhibition call (S. aureus RN4220)
COCc1cn(CC[C@@H]2CC[C@@H](NC(=O)CCN3CCCCC3)[C@H](CO)O2)nn1,inactive,inactive,inactive
C[C@@H]1CN([C@@H](C)CO)C(=O)c2cc(NS(=O)(=O)c3cccs3)ccc2O[C@H]1CN(C)C(=O)Nc1cccc2ccccc12,inactive,inactive,inactive
CCOC(=O)c1c(C)n[nH]c1N,inactive,inactive,inactive
C[C@H]1CN([C@@H](C)CO)C(=O)Cc2cc(NC(=O)CCN3CCOCC3)ccc2O[C@H]1CN(C)S(=O)(=O)c1ccccc1,inactive,inactive,inactive
C[C@H]1CN([C@@H](C)CO)C(=O)Cc2cc(NS(=O)(=O)c3ccccc3)ccc2O[C@@H]1CN(C)Cc1ccc2c(c1)OCO2,inactive,inactive,inactive
C[C@H]1CN([C@@H](C)CO)C(=O)c2cccc(NC(=O)c3ccc(-c4nccs4)cc3)c2O[C@H]1CN(C)Cc1ccc(C(=O)Nc2ccccc2N)cc1,inactive,inactive,inactive
CN(C)C=C(C=[N+](C)C)c1[nH]ncc1N,inactive,inactive,inactive
COc1ccc(CN(C)C[C@@H]2OCCCC[C@H](C)Oc3ccc(NC(=O)Nc4cccc5ccccc45)cc3C(=O)N([C@@H](C)CO)C[C@H]2C)cc1,active,active,inactive
NCCOB(c1ccccc1)c1ccccc1,inactive,inactive,inactive
C[C@H](CO)N1C[C@H](C)[C@H](CN(C)CC2CCCCC2)Oc2c(NC(=O)c3nc4ccccc4s3)cccc2C1=O,inactive,inactive,inactive
C[C@@H]1CN([C@@H](C)CO)C(=O)c2cc(NS(=O)(=O)c3cccs3)ccc2O[C@@H]1CN(C)S(=O)(=O)c1ccc(F)cc1,inactive,inactive,inactive
C[C@@H]1CN([C@@H](C)CO)C(=O)c2cc(NC(=O)Cn3cnnn3)ccc2O[C@@H]1CN(C)C(=O)Nc1cccc2ccccc12,inactive,inactive,inactive
C[C@H]1CCCCO[C@H](CN(C)C(=O)Nc2ccccc2)[C@@H](C)CN([C@@H](C)CO)C(=O)c2cc(NC(=O)Nc3ccc(F)cc3)ccc2O1,inactive,active,inactive
C[C@@H]1CN([C@H](C)CO)S(=O)(=O)c2ccc(C#CC3CC3)cc2O[C@@H]1CN(C)Cc1ccc(F)cc1,inactive,inactive,inactive
COc1ccc(NC(=O)N(C)C[C@@H]2Oc3c(NC(=O)c4ccc(-c5nccs5)cc4)cccc3C(=O)N([C@H](C)CO)C[C@@H]2C)cc1,inactive,inactive,inactive
O=C(O)Cc1ccc(-c2ccccc2)cc1,inactive,inactive,inactive
C[C@@H]1CN([C@H](C)CO)C(=O)c2cc(NC(=O)Cc3cn(C)c4ccccc34)ccc2O[C@H]1CN(C)C(=O)Nc1cccc2ccccc12,active,inactive,inactive
CCCNC(=O)[C@@H]1c2ccccc2C(=O)N(Cc2cc(F)cc(C(F)(F)F)c2)[C@H]1c1ccc(CO)cc1,inactive,inactive,inactive
C[C@@H]1CCCCO[C@@H](CN(C)S(=O)(=O)c2ccc(Cl)cc2)[C@H](C)CN([C@@H](C)CO)C(=O)c2cc(NC(=O)c3ccccc3)ccc2O1,inactive,inactive,inactive
COc1ccc(-c2oc3cc(OC)c(OC)c(OC)c3c(=O)c2OC)cc1,inactive,inactive,inactive

SMILES,cytotoxicity call (HSkMC),cytotoxicity call (HepG2),growth inhibition call (S. aureus RN4220)
CNC[C@H]1OCCCC[C@@H](C)Oc2ccc(NC(=O)Nc3ccc(C(F)(F)F)cc3)cc2C(=O)N([C@H](C)CO)C[C@H]1C,inactive,inactive,active
C[C@H]1CN([C@@H](C)CO)C(=O)c2cc(NC(=O)Nc3ccccc3)ccc2O[C@H]1CN(C)Cc1ccc(Oc2ccccc2)cc1,inactive,inactive,inactive
Cc1nc(S(=O)(=O)N[C@H]2CCS(=O)(=O)C2)cn1C,inactive,active,inactive
Cc1noc(C)c1S(=O)(=O)Nc1ccc2c(c1)CC(=O)N([C@H](C)CO)C[C@@H](C)[C@H](CN(C)CC1CC1)O2,inactive,inactive,inactive
CN1C(=O)c2cc(NC(=O)C3CCOCC3)ccc2OC[C@H]2O[C@H](CC(=O)NCc3ccc4c(c3)OCO4)CC[C@@H]21,inactive,inactive,inactive
Cc1cc(C)c(N(Cc2ccccc2)S(=O)(=O)c2ccc(OCCNC(=O)c3cc4ccccc4o3)cc2)c(C(=O)NO)c1,active,active,inactive
CO[C@@H](CN(C)S(=O)(=O)c1cccc(Cl)c1)[C@@H](C)CN([C@H](C)CO)S(=O)(=O)c1cccc(Cl)c1,inactive,inactive,inactive
Cc1ccc(S(=O)(=O)N[C@H](C(=O)NCCn2cc(CCC(=O)NO)nn2)C(C)C)cc1,inactive,inactive,inactive
COc1ccc(NC(=O)N(C)C[C@H]2OCCCC[C@@H](C)Oc3ccc(NC(=O)Nc4ccc(F)cc4)cc3C(=O)N([C@@H](C)CO)C[C@H]2C)cc1,inactive,inactive,inactive
O=C(c1cccc2ccccc12)N(C1CCCC1)C1CCCC1,inactive,inactive,inactive
Cc1ccc(S(=O)(=O)Nc2ccc3c(c2)C(=O)N([C@H](C)CO)C[C@@H](C)[C@H](CN(C)Cc2ccccc2)OCCCC[C@H](C)O3)cc1,inactive,active,inactive
O=C[C@H](O)[C@@H](O)[C@H](O)[C@H](O)CO,inactive,inactive,inactive
CO[C@@H]1CN(C)C(=O)c2cc(NC(=O)Nc3c(C)noc3C)ccc2OC[C@@H](C)N(C(=O)Nc2cccc(Cl)c2)C[C@H]1C,inactive,inactive,inactive
CN1C(=O)c2cc(NC(=O)C3CCOCC3)ccc2OC[C@H]2O[C@@H](CC(=O)NCc3ccccc3F)CC[C@H]21,inactive,inactive,inactive
NNC(=O)c1ccc(CN2CCCCC2)o1,inactive,inactive,inactive
C[C@@H]1CN([C@H](C)CO)C(=O)CCCn2nncc2CO[C@H]1CN(C)C(=O)Nc1ccc(N2CCN(C)CC2)cc1,inactive,inactive,inactive
C[C@H]1CN([C@@H](C)CO)C(=O)c2cc(NS(=O)(=O)c3ccc(Cl)cc3)ccc2O[C@H]1CN(C)C(=O)Nc1cccc2ccccc12,inactive,inactive,inactive
COc1ccc(S(=O)(=O)Nc2ccc3c(c2)C(=O)N([C@H](C)CO)C[C@@H](C)[C@@H](CN(C)C(=O)c2ccccc2)OCCCC[C@H](C)O3)cc1,inactive,inactive,inactive
